Test results taken from PubChem BioAssay AID504845 (National Center for Advancing Translational Sciences (NCATS), 2011).
Screen size: about 390,000 compounds; about 150 (0.038%) were called active. Another 3% or so got no clear call; they are omitted. Calls come from the whole dose curve; as a rule, active = well fitted inhibition curve with a large enough effect; inconclusive = small, poorly fitted or top-dose-only effect; inactive = no such curve, though single readings can be large or run the other way. This is a selection; strong and weak results do not stand in their true shares. More than one record can exist for a structure, and the calls need not agree.

Biological target: Regulator of G-protein signaling 4 (Homo sapiens) (UniProt P49798)
Chain of UniProt P49798 (P49798 whole entry, looked up): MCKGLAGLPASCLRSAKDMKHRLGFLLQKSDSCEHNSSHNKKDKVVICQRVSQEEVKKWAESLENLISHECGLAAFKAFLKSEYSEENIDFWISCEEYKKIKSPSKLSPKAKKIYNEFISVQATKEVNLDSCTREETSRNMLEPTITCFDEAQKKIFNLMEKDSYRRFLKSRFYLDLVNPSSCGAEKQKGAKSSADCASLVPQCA
Assay: Inhibitors of Regulator of G Protein Signaling (RGS) 4: qHTS; note: nearly all actives have a fitted effect of over 75% in size
Conditions: Transcreener GDP fluorescence polarization, RGS4-accelerated GTP hydrolysis; series mostly up to 114 µM; activity change, negative = inhibition: at the top concentration
Outline: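 MLSMR compounds (23 nl, pin-transferred) preincubated 10 min at room temperature with a 500nM (2x) first reagent, then RGS4 at 900nM (2x) plus Transcreener GDP mix added; fluorescence polarization (620/688 nm) read before and after 90 min at 30 °C.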
% is set by controls: 0 for no effect and ±100 for the full control effect; potency is the fitted concentration of half-maximal effect.

| Compound | activity change, negative = inhibition | Potency |
| --- | --- | --- |
| O=C(c1cc(-c2ccc(O)cc2)on1)N1CCN(c2ccccc2)CC1 | inactive: -10.4% | – |
| O=C(CCCN1C(=O)/C(=C\c2cccs2)SC1=S)NNC(=O)c1ccncc1 | inactive: -26.2% | – |
| CC(=O)c1cc(CN2CCN(CC=C(C)C)C(CCO)C2)cs1 (configuration not stated) | inactive: 63.9% | – |
| COc1ccccc1NC(=O)c1cc(C)oc1C | inactive: 73.7% | – |
| O=C(Cn1cnc2c(nnn2Cc2ccccc2F)c1=O)NCc1ccco1 | inactive: 72.9% | – |
| O=C(NN1C(=O)/C(=C\c2ccc(O)c([N+](=O)[O-])c2)SC1=S)c1ccccc1Cl | inactive: 6.37% | – |
| CC(C)(C)[C@]1(O)CCN2C[C@H]3c4ccccc4CCc4cccc(c43)[C@@H]2C1 | – | inactive |
| O=C(c1cc(COc2ccc(F)cc2Cl)on1)N1CCc2ccccc2C1 | inactive: 71.6% | – |
| OCC[C@@H]1C[C@@H](O)[C@H](O)[C@@]2(CCc3ccccc3CO2)O1 | inactive: -3.08% | – |
| COc1cc(NS(C)(=O)=O)ccc1Nc1c2ccccc2nc2ccccc12 | inactive: -18.3% | – |
| C[C@@H]1C[C@H]2[C@@H]3CCC4=CC(=O)C=C[C@]4(C)[C@@]3(F)[C@@H](O)C[C@]2(C)[C@@]1(O)C(=O)CO | – | inactive |
| CCCN(CC(=O)Nc1ccc(Cl)cc1Cl)C(=O)c1ccc(=O)[nH]c1 | inactive: 68% | – |
| O=C(O)CCCCCN1C(=O)/C(=C\c2cn(-c3ccccc3)nc2-c2cccs2)SC1=S | inactive: -64.1% [at 56.9 µM] | – |
| CC1CCN(S(=O)(=O)c2ccc3c(c2)N(C)C(=O)CC(=O)N3C)CC1 | inactive: -15.2% | – |
| O=C(O)/C=C/c1ccc(Cn2ccnc2)cc1 | – | inactive |
| O=C1COc2ccc(S(=O)(=O)N3CCN(c4cccc(Cl)c4)CC3)cc2N1 | inactive: 60.8% | – |
| CCCn1c(=O)c2c(ncn2C)n(CCC)c1=O | – | inactive |
| CC(COc1ccc(/C=C/c2ccccc2)cc1)[N+](C)(C)C (configuration not stated) | inactive: -6.87% | – |
| CCc1cc[n+](/C(C(=S)Nc2cccc(C)c2)=C(/[O-])c2ccc(C)c([N+](=O)[O-])c2)cc1 | inactive: -18.1% | – |
| CC(C)CCNC(=O)CCc1nnc(COc2ccccc2)o1 | inactive: 57.6% | – |
| COc1cc2c(C#N)c(N3CCCC3)nc(N)c2c(N)n1 | inactive: 20.6% [at 11.4 µM] | – |
| O=C(CCN1C(=O)/C(=C/c2ccccc2F)SC1=S)N[C@@H](CO)Cc1ccccc1 | inactive: 58.8% | – |
| CCCCC[C@H](O)/C=C/[C@@H]1[C@@H](C/C=C\CCCC(=O)O)[C@@H](O)C[C@H]1O | inactive: 14.4% | – |
| CCN1/C(=C\C(C)=O)Sc2ccc(OC)cc21 | inactive: 9.45% | – |
| COc1cc2c(cc1OC)-c1cc(=Nc3c(C)cc(C)cc3C)n(C)c(=O)n1CC2 | inactive: 18.2% | – |

| Compound | activity change, negative = inhibition | Potency |
| --- | --- | --- |
| CCOCC(=O)Nc1ccc(F)c(F)c1 | inactive: 128% | – |
| CCCCC/C=C\C/C=C\C/C=C\CC1OC1CCCC(=O)O (configuration not stated) | – | active: 37.7 µM |
| Cc1ccc(-n2c(CCC(=O)O)ccc2-c2cccs2)cc1C | inactive: -28.5% | – |
| CCOc1ccccc1Nc1nc2ccccc2[nH]1 | inactive: 64.7% | – |
| OCC[C@@H]1C[C@H](O)[C@@H](O)[C@@]2(CCc3ccccc3CO2)O1 | inactive: 20.5% | – |
| C=CCNC(=O)c1cn(CC)c2cc(N3CCN(C(=O)c4ccco4)CC3)c(F)cc2c1=O | inactive: 58.3% | – |
| CC(C)(C)NC[C@H](O)COc1nsnc1N1CCOCC1 | – | inactive |
| CCc1cccc(NC(=O)C2CCCN(S(=O)(=O)c3cccs3)C2)c1 (configuration not stated) | inactive: 6.25% | – |
| CC(C)NC(=O)Nc1cccc2c1O[C@H](CN(C)C(=O)NC1CCCCC1)[C@@H](C)CN([C@H](C)CO)C2=O | inactive: 26.5% | – |
| Cc1ccc(NC(=O)CN2C(=O)COc3ccc(S(=O)(=O)N4CCCC4)cc32)cc1C | inactive: 64.6% | – |
| CSc1nc(N)c2ncn([C@@H]3O[C@H](COP(=O)(O)OP(=O)(O)OP(=O)(O)O)[C@@H](O)[C@H]3O)c2n1 | – | active: 11.9 µM |
| CCc1nn(CCCC(=O)NCc2cc(Br)ccc2OC)c(=O)c2cc3occc3n12 | inactive: 10.5% [at 11.4 µM] | – |
| O=C1ON=C(c2ccccc2)/C1=C\c1ccco1 | inactive: -26.4% | – |
| Cn1c(=O)n(C)c2cc(/C=N/n3cnnc3)ccc21 | inactive: 58.8% | – |
| COc1cc(OC)cc(C(=O)N2CCN(C(=O)c3cccc(F)c3)CC2)c1 | inactive: 55.9% | – |
| OCC[C@@H]1C[C@H](O)[C@@H](O)[C@@]2(OCCc3ccccc32)O1 | inactive: 15.5% | – |
| CCC(Oc1ccccc1)C(=O)Nc1nnc(S(=O)(=O)N2CCCCC2)s1 (configuration not stated) | inactive: 66.6% | – |
| CCn1cc(C(=O)NCCN(CC(C)C)CC(C)C)c(=O)c2cc(S(=O)(=O)N3CCOCC3)ccc21 | inactive: 67.4% | – |
| CC[C@@H]1CC=C[C@H]2[C@H]1C(=O)N(Cc1ccccc1)[C@H]2c1ccoc1 | inactive: -27.5% | – |
| CC(Cc1ccccc1)Nc1ncnc2c1ncn2C1OC(CO)C(O)C1O (configuration not stated) | inactive: -0.61% | – |
| NCCS(=O)(=O)O | – | inactive |
| COc1cccc2c1cc1c(=O)n(CC(=O)N3CCN(c4cccc(C)c4C)CC3)nc(C)n12 | inactive: 15.8% | – |
| c1ccc(C(NCCNC(c2ccccc2)c2ccccc2)c2ccccc2)cc1 | – | inactive |
| CCCn1c(N)c(C(=O)CSc2nnc3n2CCCCC3)c(=O)n(C)c1=O | inactive: 133% | – |
| C=CCNC(=O)/C(=C\c1ccc(Br)cc1)NC(=O)c1ccccc1OC | inactive: -20.3% | – |

| Compound | activity change, negative = inhibition | Potency |
| --- | --- | --- |
| COc1ccc2[nH]cc(CCNC(C)=O)c2c1 | – | inactive |
| CCOC(=O)c1c(NC(=O)c2cc(C(C)C)on2)sc(C(C)=O)c1C | inactive: 21.2% | – |
| CCc1nnc(NC(=O)c2nc(S(=O)(=O)Cc3ccc(C)cc3)ncc2Cl)s1 | inactive: -12.2% | – |
| Nc1nc(SCc2ccc([N+](=O)[O-])cc2)c2ncn([C@@H]3O[C@H](CO)[C@@H](O)[C@H]3O)c2n1 | inactive: 25% [at 56.9 µM] | – |
| CCOc1ccc(NC(=O)C(NC(=O)C2CCC(C)CC2)C(C)C)cc1 (configuration not stated) | inactive: -20.7% | – |
| Cc1cccc(NC(=O)Cc2cccs2)n1 | inactive: 54.4% | – |
| COc1ccc(Nc2nnc(SCC(=O)N3CCCC3)s2)cc1 | inactive: 57.4% | – |
| O=C(CC(SCCO)c1ccc([N+](=O)[O-])cc1)c1ccco1 (configuration not stated) | inactive: 57.8% | – |
| CCOC(=O)[C@@H]1[C@H]2COc3ccccc3[C@@H]2N2C(=O)N(c3ccc(C)cc3)C(=O)[C@]12C | inactive: -6.94% | – |
| O=Nc1c(-c2c(O)[nH]c3cc(Br)ccc23)[nH]c2ccccc12 | inactive: 5.48% | – |
| Nc1nc(SCc2ccc([N+](=O)[O-])cc2)c2ncn(C3OC(CO)C(O)C3O)c2n1 (configuration not stated) | inactive: 2.31% | – |
| Cc1csc(NC(=O)CCc2ccc(S(=O)(=O)N3CCOCC3)cc2)n1 | inactive: 103% | – |
| Nc1ncnc2c1ncn2[C@@H]1O[C@H](COP(=O)(O)OP(=O)(O)OP(=O)(O)OP(=O)(O)OC[C@@H]2O[C@H](n3cnc4c(N)ncnc43)[C@@H](O)[C@H]2O)[C@@H](O)[C@H]1O | – | active: 2.99 µM |
| CCCC(=O)Nc1ncnc2c1ncn2[C@@H]1O[C@@H]2COP(=O)(O)O[C@H]2[C@H]1OC(=O)CCC | – | inactive |
| CC(C)(C)c1ccc(Oc2ccc(NC(=O)c3ccco3)cn2)cc1 | inactive: 56.5% | – |
| COC(=O)C1=C(C)N=C2SC(C#N)=C(N)N2C1c1cc(OC)c(OC)c(OC)c1 (configuration not stated) | inactive: 78.4% | – |
| Cc1ccccc1NC(=O)Cn1nnc(C(=O)NCc2ccco2)c1N | inactive: 12% | – |
| CC(=O)c1cccc(-n2c(CCC(=O)O)ccc2-c2ccccc2)c1 | inactive: -43% | – |
| OCCN1CCN(CCCN2c3ccccc3Sc3ccc(Cl)cc32)CC1 | inactive: -5.74% | – |
| CCOC(=O)c1cc(S(=O)(=O)Nc2ccc(F)cc2F)cn1C | inactive: 66.5% | – |
| O=C1/C(=C\c2ccccn2)SC(=S)N1Nc1ncc(C(F)(F)F)cc1Cl | inactive: -49.1% | – |
| O=C(CN(c1ccc(F)cc1)S(=O)(=O)c1ccc2c(c1)OCCO2)NCc1ccncc1 | inactive: 55.9% | – |
| CN1CCN(C(=O)C2=C[C@@H](C3CC3)C[C@@H](OCc3ccc(CO)cc3)O2)CC1 | inactive: 9.47% | – |
| CS(=O)(=O)Nc1ccc([N+](=O)[O-])cc1OC1CCCCC1 | inactive: 110% [at 56.9 µM] | – |
| C#Cc1cccc(Nc2ncnc3cc(OC)c(OC)cc23)c1 | inactive: 170% [at 56.9 µM] | – |

| Compound | activity change, negative = inhibition | Potency |
| --- | --- | --- |
| OC(CCN1CCCCC1)(c1ccccc1)C1CCCCC1 (configuration not stated) | – | inactive |
| CCC1(O)CC2CN(CCc3c([nH]c4ccccc34)C(C(=O)OC)(c3cc4c(cc3OC)N(C=O)C3C(O)(C(=O)OC)C(OC(C)=O)C5(CC)C=CCN6CCC43C65)C2)C1 (configuration not stated) | inactive: -15.3% | – |
| COc1ccc(/C=C(\NC(=O)c2ccccc2)C(=O)NC2CCS(=O)(=O)C2)cc1 (configuration not stated) | inactive: 8.37% [at 11.4 µM] | – |
| CCC(C)(C)C(=O)O[C@@H]1C[C@@H](C)C=C2C=C[C@H](C)[C@H](CC[C@@H]3C[C@@H](O)CC(=O)O3)[C@H]21 | inactive: -139% [at 56.9 µM] | – |
| CCOC(=O)[C@@H]1[C@H]2COc3cc(OC)ccc3[C@@H]2N2C(=O)N(c3ccc(C(F)(F)F)cc3)C(=O)[C@]12C | inactive: 1.44% | – |
| CC(C)NC[C@H](O)c1ccc(O)c(O)c1 | – | inactive |
| NCCS(=O)O | – | inactive |
| O=C(O)/C(=C\c1c(C(=O)O)[nH]c2cc(Cl)cc(Cl)c12)c1ccccc1 | inactive: -4.87% | – |
| O=C(c1cc(-c2ccc(F)cc2)on1)N1CCN(c2ccc(F)cc2)CC1 | inactive: 30.9% | – |
| Cc1ccc(-c2cccc(NC(=O)C3C4C=CC(C4)C3C(=O)O)c2)o1 (configuration not stated) | inactive: -25.6% | – |
| CN(C)CCCO[C@@H]1[C@H]2OC(C)(C)O[C@H]2O[C@@H]1[C@H](O)CO | – | inactive |
| Clc1ccc(CSc2snnc2-c2ccccc2)c(Cl)c1 | inactive: 55.4% | – |
| C[N+](C)(CCOc1ccccc1)Cc1ccccc1 | inactive: -11.5% | – |
| NOCC(=O)O | inactive: -14.3% | – |
| N=C1/C(=C\c2ccc(-c3cccc(C(=O)O)c3)o2)C(=O)N=C2SC=C(c3ccccc3)N12 | inactive: 15.2% [at 11.4 µM] | – |
| CCOc1cccc2c1OC1(C)CC2NC(=O)N1Cc1ccccc1 (configuration not stated) | inactive: 61.4% | – |
| C[C@@H]1c2ccccc2CN1CC1=NCCN1 | inactive: 159% [at 56.9 µM] | – |
| COc1cccc(CNC(=O)CCC2CCCN(C(=O)c3ccoc3)C2)c1 (configuration not stated) | inactive: 56.5% | – |
| CC1(C)CN(c2cccc(-c3ccnc4ncnn34)c2)C1=O | inactive: 54.1% | – |
| CNC(=O)Nc1ccccc1C(=O)NCc1ccccc1 | inactive: 63.1% | – |
| OCC[C@H]1C[C@@H](O)[C@H](O)[C@@]2(CCc3ccccc3CO2)O1 | inactive: -1.94% | – |
| O=C(CSc1n[nH]c(=O)[nH]c1=O)N/N=C/C=C/c1ccccc1 | inactive: 2.78% | – |
